Assay results as given in article PMC4336329 (PLoS ONE, 2015).
Among all 310,000 compounds or so, about 2,200 (0.71%) showed an effect of 50% or more. The effect is printed as a negative number. The list shows a part of the results.

The compounds below were run against human ether-à-go-go-related gene (hERG) potassium channel (human, UniProt Q12809) (assay: primary screen, population patch clamp on CHO cells stably expressing hERG).
Sequence of human ether-à-go-go-related gene (hERG) potassium channel (Q12809 whole entry, looked up): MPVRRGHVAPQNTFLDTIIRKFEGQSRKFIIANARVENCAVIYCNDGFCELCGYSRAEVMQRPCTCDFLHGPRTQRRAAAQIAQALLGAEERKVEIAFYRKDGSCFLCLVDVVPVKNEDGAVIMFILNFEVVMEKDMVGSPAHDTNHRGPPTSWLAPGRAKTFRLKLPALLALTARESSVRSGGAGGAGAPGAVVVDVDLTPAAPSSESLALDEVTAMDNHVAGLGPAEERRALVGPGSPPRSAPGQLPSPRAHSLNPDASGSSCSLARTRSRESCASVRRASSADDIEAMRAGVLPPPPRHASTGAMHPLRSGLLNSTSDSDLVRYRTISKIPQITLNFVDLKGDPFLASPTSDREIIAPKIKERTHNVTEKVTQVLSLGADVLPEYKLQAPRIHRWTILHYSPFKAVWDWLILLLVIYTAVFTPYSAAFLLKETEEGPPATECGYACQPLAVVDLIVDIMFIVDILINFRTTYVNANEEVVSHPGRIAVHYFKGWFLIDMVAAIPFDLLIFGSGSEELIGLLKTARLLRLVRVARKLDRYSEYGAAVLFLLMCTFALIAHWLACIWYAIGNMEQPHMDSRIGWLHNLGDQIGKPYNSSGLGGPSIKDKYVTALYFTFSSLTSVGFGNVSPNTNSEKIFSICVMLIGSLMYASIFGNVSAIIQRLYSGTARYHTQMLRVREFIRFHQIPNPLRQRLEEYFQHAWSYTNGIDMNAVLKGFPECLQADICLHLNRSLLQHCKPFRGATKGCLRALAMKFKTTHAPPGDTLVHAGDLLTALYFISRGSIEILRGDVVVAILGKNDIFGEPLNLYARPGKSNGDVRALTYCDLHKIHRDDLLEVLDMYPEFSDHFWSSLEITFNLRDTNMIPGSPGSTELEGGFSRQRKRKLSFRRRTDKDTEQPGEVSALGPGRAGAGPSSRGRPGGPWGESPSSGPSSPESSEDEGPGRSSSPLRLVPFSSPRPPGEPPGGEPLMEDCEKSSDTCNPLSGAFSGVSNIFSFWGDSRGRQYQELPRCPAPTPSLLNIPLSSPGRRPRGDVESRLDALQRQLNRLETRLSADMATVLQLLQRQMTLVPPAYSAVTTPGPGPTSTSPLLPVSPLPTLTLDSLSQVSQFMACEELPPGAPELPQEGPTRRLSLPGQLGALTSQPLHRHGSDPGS

In order of falling “hERG current change (%, negative = inhibition) at 1uM” value:
1. COC(=O)CN1C(=S)N(c2ccc(OC)cc2)C(=O)/C1=C/c1cccs1  22.5%
2. O=C(COc1ccc2ccccc2c1)N1CCN(c2ccccc2)CC1  22.2%
3. COc1ccc(CNC(=O)COC(=O)CC2CCCC2)cc1  21.6%
4. COc1cc(/C=C/c2ccc3cccc(O)c3n2)cc(Cl)c1OC  21.6%
5. COc1ccc(C2c3ccc(O)cc3Oc3ncn4nc(-c5ccccn5)nc4c32)cc1 (centres unmarked)  18.3%
6. CCn1c(=O)cc(OCC(=O)NCCCN2CCCC2=O)c2ccccc21  16.7%
7. N#CCSc1nnc(-c2cnccn2)n1Cc1ccccc1  16.3%
8. COc1ccccc1C(=O)N(Cc1ccccc1)c1ccc(C)cc1  16%
9. O=C(CC1C(=O)NCCN1C(=O)c1ccc([N+](=O)[O-])cc1)Nc1ccc(F)cc1 (centres unmarked)  14.9%
10. CC(=O)CSc1nnc2cc(C)c3ccccc3n12  14.9%
11. CC(C)Cn1c(-c2ccncc2)n[nH]c1=S  14.6%
12. Cc1ccccc1-c1nc(-c2cccnc2)no1  14.5%
13. COCc1nnc(NC(=O)c2cccs2)s1  14.4%
14. O=C(/C=C/c1cccs1)c1cc(Cl)ccc1O  13.3%
15. CC(C)C[C@H](NC(=O)c1nc[nH]c1C(=O)N(C)Cc1ccccc1)C(=O)OCc1ccccc1  13.1%
16. COc1cccc(CNC(=O)C2CCCN(S(=O)(=O)c3ccc4c(c3)C(C)(C)C(=O)N4C)C2)c1 (centres unmarked)  13%
17. c1ccc(-n2ncc3c2ncn2nnnc32)cc1  12.7%
18. S=C1NCN(Cc2ccco2)CN1Cc1ccco1  12.7%
19. O=C(Nc1nccs1)c1cccc(S(=O)(=O)N2CCCC2)c1  12.4%
20. CCOc1ccc(C(=O)NCC(=O)OCc2cc(C(C)=O)ccc2OC)cc1  12.2%
21. CCCN1CCN(CCCNC(=O)CCNC(=O)Cn2ccc3ccccc3c2=O)CC1  12.1%
22. Cc1ccc(S(=O)(=O)NCc2csc(-c3cccs3)n2)cc1  11.9%
23. Cc1ccc(C(=O)NCCCNC(=O)c2cccnc2)cc1  11.9%
24. Cc1cc(Br)ccc1SCC(=O)OCC(=O)Nc1ccccc1C#N  11.8%
25. O=C(O)CCCCN1C(=O)/C(=C\c2ccc(OCc3ccccc3)c(OCc3ccccc3)c2)SC1=S  11.8%
26. N/C(=N\S(=O)(=O)c1cccs1)c1ccccc1Cl  11.7%
27. CCOc1cc([N+](=O)[O-])cc(/C=N/NC(=O)c2c(-c3ccccc3)noc2C)c1O  11.4%
28. COCc1[nH]nc2c1C(c1c(F)cccc1Cl)C(C#N)=C(N)O2 (centres unmarked)  11.3%
29. O=C(NCCc1ccccc1)c1ccc(CS(=O)Cc2ccc(Cl)cc2)o1 (centres unmarked)  10.9%
30. O=C(NCc1nnc(SCC(=O)N2CCN(c3ccccc3)CC2)o1)c1ccc(F)cc1  10.5%
31. O=C(c1ccc(Cn2c(=O)[nH]c3ccccc3c2=O)cc1)N1CCN(c2ccccc2)CC1  10.5%
32. C/C(=N\NC(=S)NCc1ccccc1)c1ccco1  9.96%
33. O=C(Cc1ccc([N+](=O)[O-])cc1)N/N=C/c1ccco1  9.84%
34. N#C/C(=N\Nc1cccc(C(F)(F)F)c1)C(=O)c1ccsc1  9.69%
35. Cc1ccc(C2(C(F)(F)F)NC(=O)N3CCN=C3S2)cc1 (centres unmarked)  9.52%
36. O=C(N/C=C/c1ccco1)Nc1cccc(Cl)c1  9.45%
37. CCCN(CC1CC1)C(=S)NC(=O)c1ccc(S(=O)(=O)N2CCOCC2)cc1  8.97%
38. CCOC(=O)COn1c(=O)c(C)[n+]([O-])c2ccccc21  8.8%
39. O=C1CN(C(=O)c2cc3ccccc3oc2=O)C(c2ccccc2)c2cc(F)ccc2N1 (centres unmarked)  8.52%
40. Cc1ccc(NC(=O)C23CCC(C)(C(=O)[C@H]2Br)C3(C)C)cc1 (some centres unmarked)  8.48%
41. Cc1cc(C(=O)OCC(=O)NCCC(C)C)c2ccccc2n1  7.29%
42. O=C(Nc1ccc(O)cc1)c1ccc(C(=O)c2ccccc2)o1  7.07%
43. O=C(CS(=O)(=O)c1ccccc1)Nc1ccc(Br)cn1  6.95%
44. Cc1ccc(S(=O)(=O)N(C)S(=O)(=O)c2ccc(C#N)cc2)cc1  6.91%
45. CC(C)OC(=O)c1c(NC(=O)Cn2cnc([N+](=O)[O-])n2)sc2c1CCCC2  6.78%
46. CCOC(=O)Cc1ccc(NC(=O)c2ccccc2Br)cc1  6.73%
47. COCCn1c(N)c(C(=O)NCC2CCCO2)c2nc3ccccc3nc21 (centres unmarked)  6.59%
48. Cc1cc(C(=O)CS(=O)(=O)c2ccccc2)cc(C)c1O  6.57%
49. S=C(Nc1ccccc1Cl)N(CCCN1CCOCC1)Cc1ccco1  6.53%
50. CCOc1ccc(CNC(=O)CCC(=O)N2Cc3cccc(OC)c3Oc3ncccc32)cc1  6.34%
51. Cc1nn(Cc2cccc(C(=O)Nn3cc([N+](=O)[O-])cn3)c2)c(C)c1[N+](=O)[O-]  6.29%
52. Cc1cc(NC(=O)Nc2cc(F)ccc2F)no1  6.23%
53. COCCCNC(=O)/C=C/c1ccc(Cl)cc1  6.16%
54. CC(NS(=O)(=O)c1ccc2c(c1)OCCO2)c1ccccc1 (centres unmarked)  6.11%
55. Fc1ccc(C[n+]2csc3ccccc32)cc1.[Br-]  5.78%
56. CC(C)(C#CCN1CCCCC1)OCCOC(c1ccccc1)c1ccccc1.Cl  5.74%
57. CN1CCN(C(=O)c2cccc(NS(=O)(=O)c3ccc(Br)cc3)c2)CC1.Cl  5.4%
58. COc1ccc(S(=O)(=O)NC2CC3CCC2C3)cc1Cl (centres unmarked)  4.88%
59. COc1ccc2cc(C=O)n(C)c2c1  4.79%
60. CCCCNc1c(-c2ccc(SC(C)CC)cc2)nc2ccccn12.O=C(O)C(F)(F)F (centres unmarked)  4.34%
61. COc1ccccc1CN(C)C(=O)c1cccc(S(=O)(=O)N2CCCc3ccccc32)c1  4.34%
62. CNC(=O)n1cc(C)c(-c2cccs2)n1  4.06%
63. COc1ccc(C)cc1NC(=O)CN1C(=O)c2ccccc2S1(=O)=O  3.98%
64. CC(=O)Nc1ccc(C(F)(F)F)cc1Cl  3.91%
65. CC(C)(C)c1ccc(C(=O)Nc2ccc(O)c3c(=O)cc(-c4ccccc4Cl)oc23)cc1  3.83%
66. Cn1ncc2c1ncn1nc(CCc3ccccc3)nc21  2.78%
67. O=C1C(=O)c2ccccc2C(O)=C1CCCCl  2.06%
68. COc1ccc(-c2cc(C(F)(F)F)nc(SCC(=O)NCc3cccs3)n2)cc1OC  1.61%
69. CCCCSC1(SCCCC)N=C(N)C2(C#N)C(c3ccccc3)NC(C)=C(C)C12C#N (centres unmarked)  0.597%
70. Cc1ccc(CN2CCNC(=O)C2CC(=O)N(C)CCc2ccccc2)cc1 (centres unmarked)  0.424%
71. CC(=C1C(=O)c2ccccc2C1=O)N1CCc2ccccc2C1  -0.458%
72. O=C(NNc1c(Cl)cc(Cl)cc1Cl)C1CCC1  -0.906%
73. O=C(COC(=O)[C@H](Cc1c[nH]c2ccccc12)NC(=O)c1cccs1)NCc1ccccc1  -1.25%
74. O=C(O)C(=O)O.c1ccc(-n2cccc2CNC2CCCCC2)cc1  -1.33%
75. CCN(CC)C(=S)NCCc1ccccc1  -1.37%
76. C=CCN(Cc1nc(-c2ccc(OC)cc2)no1)C(=O)c1ccc2c(c1)OCO2  -1.66%
77. CCOc1ccccc1N1CCN(C2=C(NS(=O)(=O)c3cccs3)C(=O)c3ccccc3C2=O)CC1  -1.73%
78. C/C(=N\NC(=S)NC1CCCCC1)c1ccccc1  -3.27%
79. Cc1cc(C)cc(C(=O)NCC(=O)OCC(=O)Nc2cccnc2Cl)c1  -3.31%
80. CN1C2C=C3C(C#N)=C(N)C(C#N)(C#N)[C@@H](c4ccc(Cl)cc4)[C@@H]3C1CC2 (some centres unmarked)  -3.4%
81. CCn1c(SCC(=O)N2CCN(c3ccccc3)CC2)nnc1-c1c[nH]c2ccccc12  -4.06%
82. CCN1CCN(C(c2cccs2)C(C)NC(=S)NC2CCCCC2)CC1 (centres unmarked)  -5.14%
83. CCOC(=O)c1ccc(N2C(=O)CC(N3CCN(C(=O)c4ccco4)CC3)C2=O)cc1 (centres unmarked)  -5.28%
84. COCCNC(=O)NC1(C(F)(F)F)Oc2ccc(Cl)cc2O1 (centres unmarked)  -5.48%
85. O=S(=O)(Nc1nc2c(s1)CCCC2)c1ccc(F)cc1  -5.69%
86. COc1cccc2sc(N(CCCN(C)C)C(=O)C(c3ccccc3)c3ccccc3)nc12.Cl  -11%
87. CC1CC(C)CN(C(=S)Nc2ccc(SC(F)F)cc2)C1 (centres unmarked)  -28.9%
88. CCOc1cc(CN2CCN(CCc3ccccc3)C(CCO)C2)ccc1OC (centres unmarked)  -30.6%
89. O=C(O)C(=O)O.O=[N+]([O-])c1ccc(S(=O)(=O)N2CCN(C3CCN(Cc4ccccc4)CC3)CC2)cc1  -78.1%
